Enrichment score data for 19 molecules are collected here from the supplement of paper PMC10369915.

This is one part of the list. Rule as the data show it: active = 3.2 or more and inactive = the rest. Most of these values are background signal.
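Also: displayed peptides selected on beads carrying the immobilized SH2 domain, with library peptides lacking any tyrosine serving as negative controls.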

One assay concerns the target SHP2 C-SH2 domain E139D. Kind of assay: enrichment score (SH2-bound / input frequency) (ratio); bacterial display of known human phosphotyrosine sites (pTyr-Var adds point mutants) read by sequencing; higher = stronger binding; tyrosines were phosphorylated by kinases first. The conditions noted are these: peptide library: pTyr-Var.
In the case of LASSEYPVRRR [GALK1_Y236], the enrichment score was inactive: 0.2.
On the same count and under the same terms, for ANSPVYVPTTR [GATA6_Y188_S184N] the value was inactive: 0.573; for NTVLGYFIGRI [GARS1_Y408], inactive: 1.25.
Still for that read-out and setting: for RAIDMYLMGCF [GABRB2_Y308_K303R] the value was inactive: 0.874; for ADCRYYAFPQM [GAMT_Y223], inactive: 1.45.
Still for that read-out and setting: for FIGCIYLFLTK [GARS1_Y414_R412C_YF] the value was inactive: 3.17; for SIIKDYFHRGT [GATM_Y203_A208T], inactive: 0.751; for GRSTYYWPRPR [GAGE12J_Y10], inactive: 0.275.
On to PADCRYYAFPQ [GAMT_Y222], for which the enrichment score is inactive: 0.634.
On the same count and under the same terms, for SIIKDSFHRGA [GATM_Y203_Y203S] the value was inactive: 0.921; for QKPLDYYRVNL [GALE_Y104], inactive: 0.945.
Same read-out and setting: for ADCRYYTFPQM [GAMT_Y223_A224T] the value was inactive: 0.932.
On the same count and under the same terms, as for RGRSTYFWPRP [GAGE12J_Y9_YF], the figure is inactive: 0.227.
NTVLGYFIGCI [GARS1_Y408_R412C]: the enrichment score was inactive: 0.786.
Still for that read-out and setting: for TGVWDYIHVVD [GALE_Y241_R239W] the value was inactive: 0.922.
With ADCRFYAFPQM [GAMT_Y223_YF], the enrichment score is inactive: 0.856.
As for AAPAAHDAADT [GAMT_Y27_Y27H], the enrichment score is inactive: 0.375.
The same measure, in the same setting: for GRSTFYWPRPR [GAGE12J_Y10_YF] the value was inactive: 0.233.
Still for that read-out and setting: for QKPLDYFRVNL [GALE_Y104_YF] the value was inactive: 0.878.

For a further assay, the target named is SHP2 C-SH2 domain wild-type. The assay is described as above. The conditions noted are these: peptide library: pTyr-Var.
With LASSEYPVRRR [GALK1_Y236], the enrichment score was inactive: 0.176.
On the same count and under the same terms, for ANSPVYVPTTR [GATA6_Y188_S184N] the value was inactive: 0.678.
The same measure, in the same setting: as for NTVLGYFIGRI [GARS1_Y408], the figure is inactive: 1.25; as for RAIDMYLMGCF [GABRB2_Y308_K303R], inactive: 1.1; as for ADCRYYAFPQM [GAMT_Y223], inactive: 1.37.
The same measure, in the same setting: for FIGCIYLFLTK [GARS1_Y414_R412C_YF] the value was inactive: 2.23; for SIIKDYFHRGT [GATM_Y203_A208T], inactive: 0.782; for GRSTYYWPRPR [GAGE12J_Y10], inactive: 0.228.
PADCRYYAFPQ [GAMT_Y222]: the enrichment score was inactive: 0.747.
On the same count and under the same terms, as for SIIKDSFHRGA [GATM_Y203_Y203S], the figure is inactive: 0.797; as for QKPLDYYRVNL [GALE_Y104], inactive: 0.77; as for ADCRYYTFPQM [GAMT_Y223_A224T], inactive: 1.34.
Still for that read-out and setting: as for RGRSTYFWPRP [GAGE12J_Y9_YF], the figure is inactive: 0.256.
Still for that read-out and setting: for NTVLGYFIGCI [GARS1_Y408_R412C] the value was inactive: 1.03; for TGVWDYIHVVD [GALE_Y241_R239W], inactive: 0.994.
In the case of ADCRFYAFPQM [GAMT_Y223_YF], the enrichment score was inactive: 1.21.
With AAPAAHDAADT [GAMT_Y27_Y27H], the enrichment score was inactive: 0.412.
Same read-out and setting: for GRSTFYWPRPR [GAGE12J_Y10_YF] the value was inactive: 0.222; for QKPLDYFRVNL [GALE_Y104_YF], inactive: 0.65.

The target in the next assay is SHP2 N-SH2 domain L43F. The assay is described as above. The following applies: peptide library: pTyr-Var.
As to LASSEYPVRRR [GALK1_Y236], the enrichment score is inactive: 0.21.
On the same count and under the same terms, for ANSPVYVPTTR [GATA6_Y188_S184N] the value was inactive: 0.947; for NTVLGYFIGRI [GARS1_Y408], inactive: 1.11; for RAIDMYLMGCF [GABRB2_Y308_K303R], inactive: 0.832.
Same read-out and setting: for ADCRYYAFPQM [GAMT_Y223] the value was inactive: 1.51; for FIGCIYLFLTK [GARS1_Y414_R412C_YF], inactive: 2.3; for SIIKDYFHRGT [GATM_Y203_A208T], inactive: 0.913.
Still for that read-out and setting: for GRSTYYWPRPR [GAGE12J_Y10] the value was inactive: 0.289; for PADCRYYAFPQ [GAMT_Y222], inactive: 0.797.
SIIKDSFHRGA [GATM_Y203_Y203S]: the enrichment score is inactive: 0.919.
In the case of QKPLDYYRVNL [GALE_Y104], the enrichment score was inactive: 0.787.
Take ADCRYYTFPQM [GAMT_Y223_A224T]: the enrichment score is inactive: 1.1.
As for RGRSTYFWPRP [GAGE12J_Y9_YF], the enrichment score is inactive: 0.225.
On the same count and under the same terms, as for NTVLGYFIGCI [GARS1_Y408_R412C], the figure is inactive: 0.975; as for TGVWDYIHVVD [GALE_Y241_R239W], inactive: 0.966.
For the molecule ADCRFYAFPQM [GAMT_Y223_YF], the enrichment score is inactive: 1.04.
Still for that read-out and setting: as for AAPAAHDAADT [GAMT_Y27_Y27H], the figure is inactive: 0.529; as for GRSTFYWPRPR [GAGE12J_Y10_YF], inactive: 0.208; as for QKPLDYFRVNL [GALE_Y104_YF], inactive: 0.905.

For another assay, the target named is SHP2 N-SH2 domain T42A. The assay is described as above. The following applies: peptide library: pTyr-Var.
As to LASSEYPVRRR [GALK1_Y236], the enrichment score is inactive: 0.18.
Still for that read-out and setting: as for ANSPVYVPTTR [GATA6_Y188_S184N], the figure is inactive: 0.57.
The same measure, in the same setting: for NTVLGYFIGRI [GARS1_Y408] the value was inactive: 1.1; for RAIDMYLMGCF [GABRB2_Y308_K303R], inactive: 1.19; for ADCRYYAFPQM [GAMT_Y223], inactive: 1.1.
Same read-out and setting: as for FIGCIYLFLTK [GARS1_Y414_R412C_YF], the figure is inactive: 1.75; as for SIIKDYFHRGT [GATM_Y203_A208T], inactive: 0.856; as for GRSTYYWPRPR [GAGE12J_Y10], inactive: 0.268.
With PADCRYYAFPQ [GAMT_Y222], the enrichment score was inactive: 0.743.
For the molecule SIIKDSFHRGA [GATM_Y203_Y203S], the enrichment score is inactive: 0.699.
With QKPLDYYRVNL [GALE_Y104], the enrichment score is inactive: 0.768.
Still for that read-out and setting: for ADCRYYTFPQM [GAMT_Y223_A224T] the value was inactive: 1.08; for RGRSTYFWPRP [GAGE12J_Y9_YF], inactive: 0.272; for NTVLGYFIGCI [GARS1_Y408_R412C], inactive: 0.777.
Same read-out and setting: for TGVWDYIHVVD [GALE_Y241_R239W] the value was inactive: 0.882; for ADCRFYAFPQM [GAMT_Y223_YF], inactive: 0.812.
The same measure, in the same setting: for AAPAAHDAADT [GAMT_Y27_Y27H] the value was inactive: 0.36; for GRSTFYWPRPR [GAGE12J_Y10_YF], inactive: 0.279; for QKPLDYFRVNL [GALE_Y104_YF], inactive: 0.677.

The target of another assay is SHP2 N-SH2 domain T52S. The assay is described as above. The conditions noted are these: peptide library: pTyr-Var.
For the molecule LASSEYPVRRR [GALK1_Y236], the enrichment score was inactive: 0.251.
Consider ANSPVYVPTTR [GATA6_Y188_S184N], for which the enrichment score is inactive: 0.746.
The same measure, in the same setting: as for NTVLGYFIGRI [GARS1_Y408], the figure is inactive: 1; as for RAIDMYLMGCF [GABRB2_Y308_K303R], inactive: 0.981; as for ADCRYYAFPQM [GAMT_Y223], inactive: 0.862.
Still for that read-out and setting: for FIGCIYLFLTK [GARS1_Y414_R412C_YF] the value was inactive: 2.92.
The same measure, in the same setting: as for SIIKDYFHRGT [GATM_Y203_A208T], the figure is inactive: 0.831; as for GRSTYYWPRPR [GAGE12J_Y10], inactive: 0.236.
Take PADCRYYAFPQ [GAMT_Y222]: the enrichment score was inactive: 0.806.
On the same count and under the same terms, as for SIIKDSFHRGA [GATM_Y203_Y203S], the figure is inactive: 0.926.
As for QKPLDYYRVNL [GALE_Y104], the enrichment score is inactive: 0.683.
Still for that read-out and setting: for ADCRYYTFPQM [GAMT_Y223_A224T] the value was inactive: 1.29; for RGRSTYFWPRP [GAGE12J_Y9_YF], inactive: 0.156.
The same measure, in the same setting: for NTVLGYFIGCI [GARS1_Y408_R412C] the value was inactive: 0.656.
On the same count and under the same terms, as for TGVWDYIHVVD [GALE_Y241_R239W], the figure is inactive: 0.836.
Regarding ADCRFYAFPQM [GAMT_Y223_YF], the enrichment score is inactive: 0.791.
Regarding AAPAAHDAADT [GAMT_Y27_Y27H], the enrichment score is inactive: 0.415.
The same measure, in the same setting: as for GRSTFYWPRPR [GAGE12J_Y10_YF], the figure is inactive: 0.314.
The same measure, in the same setting: for QKPLDYFRVNL [GALE_Y104_YF] the value was inactive: 0.825.

The next assay addresses SHP2 N-SH2 domain wild-type. The description is as above. The conditions noted are these: peptide library: pTyr-Var.
Regarding LASSEYPVRRR [GALK1_Y236], the enrichment score is inactive: 0.232.
On the same count and under the same terms, for ANSPVYVPTTR [GATA6_Y188_S184N] the value was inactive: 0.712; for NTVLGYFIGRI [GARS1_Y408], inactive: 1.17; for RAIDMYLMGCF [GABRB2_Y308_K303R], inactive: 1.04.
The same measure, in the same setting: as for ADCRYYAFPQM [GAMT_Y223], the figure is inactive: 1.67.
In the case of FIGCIYLFLTK [GARS1_Y414_R412C_YF], the enrichment score is inactive: 2.41.
Consider SIIKDYFHRGT [GATM_Y203_A208T], for which the enrichment score is inactive: 0.86.
Still for that read-out and setting: for GRSTYYWPRPR [GAGE12J_Y10] the value was inactive: 0.271; for PADCRYYAFPQ [GAMT_Y222], inactive: 0.76; for SIIKDSFHRGA [GATM_Y203_Y203S], inactive: 0.856.
With QKPLDYYRVNL [GALE_Y104], the enrichment score was inactive: 1.13.
Same read-out and setting: for ADCRYYTFPQM [GAMT_Y223_A224T] the value was inactive: 0.999; for RGRSTYFWPRP [GAGE12J_Y9_YF], inactive: 0.239.
On the same count and under the same terms, for NTVLGYFIGCI [GARS1_Y408_R412C] the value was inactive: 1.32.
The same measure, in the same setting: for TGVWDYIHVVD [GALE_Y241_R239W] the value was inactive: 1.34.
As to ADCRFYAFPQM [GAMT_Y223_YF], the enrichment score was inactive: 1.43.
Consider AAPAAHDAADT [GAMT_Y27_Y27H], for which the enrichment score was inactive: 0.451.
The same measure, in the same setting: as for GRSTFYWPRPR [GAGE12J_Y10_YF], the figure is inactive: 0.239; as for QKPLDYFRVNL [GALE_Y104_YF], inactive: 0.685.
